Data taken from PubChem BioAssay AID1768 (National Center for Advancing Translational Sciences (NCATS), 2009).
In all, about 270,000 compounds went through this assay and about 620 (0.23%) were called active. Inconclusive means that the source gave no clear call. Such entries were picked first, then a sample of the others. Calls come from the whole dose curve; as a rule, active = well fitted inhibition curve with a large enough effect in the polarisation, with a control signal flat (not every such curve was filed as active); inconclusive = small, poorly fitted or top-dose-only effect, or effect the other way, or a change in a side signal; inactive = no such curve, though single readings can be large or run the other way; the % refers to the polarisation. A potency beside an inconclusive call is a rough fit, not a confirmed value. “Side channel” marks fits to a control or component signal instead of the main read-out.

biological target: Menin (Homo sapiens) (UniProt O00255); assay: qHTS Assay for Inhibitors Targeting the Menin-MLL Interaction in MLL Related Leukemias: Competition With Texas Red Labeled MLL-derived Mutant Peptide; settings: fluorescence polarization; FP activity change, negative = inhibition: at 61.6 µM (top of the series); for FP activity change, negative = inhibition: % of control where 0% means no effect
Chain of UniProt O00255 (O00255 whole entry, looked up): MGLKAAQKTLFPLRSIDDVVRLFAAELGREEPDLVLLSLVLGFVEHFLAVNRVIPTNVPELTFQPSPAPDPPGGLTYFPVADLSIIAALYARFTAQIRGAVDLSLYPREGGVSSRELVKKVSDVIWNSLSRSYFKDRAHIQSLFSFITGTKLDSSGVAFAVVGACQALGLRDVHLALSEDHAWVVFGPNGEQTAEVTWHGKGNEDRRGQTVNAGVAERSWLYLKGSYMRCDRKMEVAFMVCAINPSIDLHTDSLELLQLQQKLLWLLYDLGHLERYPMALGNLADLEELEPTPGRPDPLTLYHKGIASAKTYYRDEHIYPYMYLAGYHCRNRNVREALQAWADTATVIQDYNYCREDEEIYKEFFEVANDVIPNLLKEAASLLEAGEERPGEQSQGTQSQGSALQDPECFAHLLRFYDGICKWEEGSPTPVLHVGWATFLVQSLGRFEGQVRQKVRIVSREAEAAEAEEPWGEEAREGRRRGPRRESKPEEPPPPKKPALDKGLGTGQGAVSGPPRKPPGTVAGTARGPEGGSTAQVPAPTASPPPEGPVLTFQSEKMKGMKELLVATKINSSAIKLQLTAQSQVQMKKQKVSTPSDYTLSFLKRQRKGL
Potency is the fitted concentration of half-maximal effect; tags give direction and shape of the fitted curve or compound fluorescence and quenching.

Potency, inconclusive:
O=C(Nc1nnc2n1CCS2)c1ccc(Br)o1 1 µM [quencher, side channel, full curve]
CCC(C)(C)C(=O)Nc1ccc(OC)cc1[N+](=O)[O-] 17.8 µM [inhibitor, partial curve]
Clc1ccc(C2=C3CCCCn4c(-c5ccccc5)c[n+](c43)C2)cc1 12.6 µM [inhibitor, partial curve]
COc1cccc(Nc2nnc(Cc3cccnc3)c3ccccc23)c1 39.8 µM [inhibitor, single point]
COc1cccc(OC)c1C(=O)Nc1nc2ccc([N+](=O)[O-])cc2s1 11.2 µM [quencher, side channel, partial curve]
C=CCn1c(CCCNC(=O)c2ccccc2OC)nc2ccccc21 31.6 µM [fluorescent, side channel, single point]
O=C(CN1C(=O)COc2ccc(S(=O)(=O)N3CCCCC3)cc21)NCc1ccccc1Cl 39.8 µM [inhibitor, single point]
COC(=O)[C@@H](NC(=O)N1CCC(Cc2ccccc2)CC1)C(C)C 14.1 µM [inhibitor, partial curve]
CSc1ccc(CN(C)Cc2cc(=O)oc3c(C)c(C)ccc23)cc1 17.8 µM [fluorescent, side channel, partial curve]
Cc1cc(N(C)C)ccc1N=Nc1ccc2ncccc2c1 14.1 µM [quencher, side channel, partial curve]
CCOC1=C/C(=C/c2c(N)n3nc(CC(=O)N4CCCC4)sc3nc2=O)C=CC1=O 12.6 µM [quencher, side channel, partial curve]
CCOc1ccc(/C=N/n2cc(-c3ccccc3)[nH]c2=S)cc1 17.8 µM [quencher, side channel, partial curve]
O=C(Nc1ccc(N2CCCC2)cc1)c1cccc(Cl)c1Cl 25.1 µM [quencher, side channel, single point]
Nc1ccc(Oc2ccc3nc(-c4ccccc4)c(-c4ccccc4)nc3c2)cc1 14.1 µM [quencher, side channel, partial curve]
O=C(Cc1cccc(C(F)(F)F)c1)Nc1cccc(S(=O)(=O)N2CCCC2)c1 22.4 µM [quencher, side channel, partial curve, poor fit]
COc1ccc(C)cc1NS(=O)(=O)c1ccc(NS(=O)(=O)c2ccc(NC(C)=O)cc2)cc1 28.2 µM [quencher, side channel, single point]
Cc1cc(C)n(-c2nc3ccccc3nc2Nc2ccc3c(c2)OCO3)n1 17.8 µM [quencher, side channel, partial curve]
O=S(=O)(O)c1ccc(N2N=C(c3ccccc3)CC2c2ccccc2)cc1 (stereo not drawn) 22.4 µM [quencher, side channel, partial curve]
COc1ccc(Nc2nccc(-c3ccc([N+](=O)[O-])cc3)n2)cc1 17.8 µM [quencher, side channel, partial curve]
O=C(Nc1ccc(F)c([N+](=O)[O-])c1)C(=O)c1c(O)[nH]c2ccccc12 17.8 µM [quencher, side channel, partial curve]
CCOc1cc(/C=C2\SC(=Nc3ccc(F)cc3)N(c3ccc(F)cc3)C2=O)ccc1OCC(=O)O 7.94 µM [quencher, side channel, partial curve]
COc1ccc(-c2sc(Nc3ccccc3)n[n+]2-c2ccc(F)cc2)c(C)c1C 3.98 µM [fluorescent, side channel, full curve, poor fit]
COc1ccc(S(=O)(=O)N(C(=O)c2ccco2)c2cc3sc(=O)oc3c3ccccc23)cc1 31.6 µM [quencher, side channel, single point]
COc1ccc(CNC(=O)C2=CC(c3ccc(OC)cc3)=NS(=O)(=O)N2C)cc1 15.8 µM [quencher, side channel, partial curve]
CCC1=NN2C(=N)/C(=C\c3ccc(OCCOc4ccccc4OC)cc3)C(=O)N=C2S1 10 µM [quencher, side channel, partial curve]
COc1cc(CN2CCNC(=O)C2CC(=O)NCCC2=CCCCC2)cc(OC)c1 (stereo not drawn) 10 µM [fluorescent, side channel, partial curve]
Cc1ccccc1CSc1nnc(-c2ccco2)n1Cc1ccco1 15.8 µM [fluorescent, side channel, partial curve, poor fit]
COc1ccc(C2=NN(C(=S)Nc3ccccc3)C(c3ccccc3)C2)cc1 (stereo not drawn) 17.8 µM [inhibitor, single point]

FP activity change, negative = inhibition, inactive:
CCc1nc(NCC2CCCO2)c(C#N)c2c1COC(C)(C)C2 (stereo not drawn) -15.5%
CCCNC(=O)c1c(N)n(-c2cccc(OC)c2)c2nc3ccccc3nc12 29.5%
NCC(=O)N[C@@H](CCCN=C(N)N)C(=O)NCC(=O)N[C@@H](CC(=O)O)C(=O)N[C@@H](CO)C(=O)O 6.16%
COC(=O)[C@@]1(Cc2ccccc2)[C@H]2c3cc(C(=O)N4CCCC4)n(CCN4CNCC4=O)c3C[C@H]2CN1C(=O)c1ccccc1 0.501%
Nc1nc(-c2ccccc2)c(-c2ccccc2)n1N -17.5%
O=C(CCc1ccccc1)Nc1ccc2c(c1)OCCO2 -4.92%
CCOc1ccc(C(=O)Nc2cccc3cccnc23)cc1 -18.4%
O=C(Nc1ccccn1)c1ccc(Br)c(S(=O)(=O)N2CCCCC2)c1 4.4%
O=C(NN1C(=O)c2ccc3c4c(ccc(c24)C1=O)CC3)c1ccc(Br)cc1 -4.46%
CN(C)c1nc2ccccc2c(N)c1-c1ccccc1 -27.1%
